PubChem BioAssay (Tox21)
Records with an inconclusive call do not appear. Calls follow the shape of the dose curve; as a rule, active = well fitted cell-killing curve with a large enough effect in the repeat runs; inconclusive = weak or mixed curves, or effect the other way; inactive = flat fitted curve, though single readings scatter. Some compounds were tested as several samples or in several runs, with calls that do not always agree. A number of entries come with more than one value. They are shown here; other results are not. An entry can have further records. Results that share an entry repeat one measurement (runs, samples, wells, individuals or studies). What stands in brackets tells the records apart. A, B and so on number the origins entry by entry.

Columns and labels:
[1] = cAMP Responsive Elements (CRE) small molecule agonists, cell-based qHTS assay: qHTS cell viability counter screen (AID 2060914); conditions: CRE-bla HEK293T viability, CellTiter-Glo luminescence, 5 h; series mostly up to 92.4 µM;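 also: viability read after 3 h of compound exposure; nearly all actives have a fitted effect of over 50% in size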
From the text: National Center for Advancing Translational Sciences [NCATS]
Division of Preclinical Innovation [DPI]
U.S. Environmental Protection Agency [EPA]
National Institutes of Environmental Health Sciences [NIEHS]
National Toxicology Program [NTP]
U.S. Food and Drug Administration [FDA]
(§1) CREB (cyclic-AMP Responsive Element Binding Protein) is a cellular transcription factor. It binds to certain DNA sequences called cAMP Responsive Elements (CRE) and regulates the transcription of the genes. […] This cell line can be used to find agonists/antagonists of the cyclic AMP signaling pathway. The activation of the report gene under culture conditions can be detected by fluorescence intensity. This cell line has been used to screen the Tox21 10K compound library to identify agonists that induce oxidative stress. The cytotoxicity of the Tox21 compound library against the CRE-bla cell line was tested in parallel by measuring the cell viability using CellTiter-Glo assay (Promega, Madison, WI) in the same wells.
Tox21 Assay Protocol Summary:
CRE-bla Hek 293T cells were suspended in assay medium (DMEM containing 10% dialyzed FBS, 0.1 mM NEAA, 1 mM sodium pyruvate and 25 mM HEPES) and dispensed at 2,000 cells/5 uL /well into 1536-well black wall/clear bottom plates using a Multidrop Combi (ThermoFisher Scientific, Waltham, MA) dispenser. After the assay plates were incubated at 37 C/5% CO2 for 18 hrs, 23 nL of compounds dissolved in DMSO, positive controls or DMSO only was transferred to the assay plate by a pintool workstation (Kalypsys, San Diego, CA). After the plates were incubated at 37 C/5% CO2 for 3 hrs, 1 uL of LiveBLAzer B/G FRET substrate (Invitrogen, Carlsbad, CA) was added to each well using Bioraptr Flying Reagent Dispenser (FRD, Aurora Discovery, San Diego, CA). The plates were incubated at room temperature for 2 h, then fluorescence intensities were measured using an Envision plate reader (PerkinElmer, Shelton, CT) at Excitation 405nm, Emission 460nm and 530nm. The % activity was determined from the ratio of 460nm/530nm. For cell viability readout that measures cytotoxicity, 4 uL /well of CellTiter-Glo reagent was added into the assay plates using Bioraptr FRD. After 30 min incubation at room temperature, the luminescence intensity in the assay plates was measured using a ViewLux (PerkinElmer, Shelton, CT) plate reader.

[2] = cAMP Responsive Elements (CRE) small molecule antagonists, cell-based qHTS assay: qHTS cell viability counter screen (AID 2060913); conditions: CRE-bla HEK293T viability, CellTiter-Glo luminescence, 5 h; series mostly up to 92.4 µM; also: nearly all actives have a fitted effect of over 40% in size
From the text: as §1, with “U.S. Tox21 Program National Center for Advancing Translational Sciences [NCATS] Division of Preclinical Innovation [DPI] U.S. Environmental Protection Agency [EPA] National Institutes of Environmental Health Sciences [NIEHS] National Toxicology Program [NTP] U.S. Food and Drug Administration [FDA] Tox21 Assay Overview: CREB” for “CREB”
Tox21 Assay Protocol Summary: CRE-bla Hek 293T cells were suspended in assay medium (DMEM containing 10% dialyzed FBS, 0.1 mM NEAA, 1 mM sodium pyruvate and 25 mM HEPES) and dispensed at 2,000 cells/4 uL /well into 1536-well black wall/clear bottom plates using a Multidrop Combi (ThermoFisher Scientific, Waltham, MA) dispenser. After the assay plates were incubated at 37 C/5% CO2 for 18 hrs, 23 nL of compounds dissolved in DMSO, positive controls or DMSO only was transferred to the assay plate by a pintool workstation (Kalypsys, San Diego, CA), followed by addition of 1 uL of 1.25uM NKH477 (0.25 uM as final concentration) in assay medium using a Flying Reagent Dispenser (Aurora Discovery, San Diego, CA). The plates were incubated at 37 C and 5% CO2 for 3 hrs. Then 1 uL of LiveBLAzer B/G FRET substrate (Invitrogen, Carlsbad, CA) was added to each well using Bioraptr Flying Reagent Dispenser (FRD, Aurora Discovery, San Diego, CA). The plates were incubated at room temperature for 2 h, then fluorescence intensities were measured using an Envision plate reader (PerkinElmer, Shelton, CT) at Excitation 405nm, Emission 460nm and 530nm. The % activity was determined from the ratio of 460nm/530nm. For cell viability readout that measures cytotoxicity, 4 uL /well of CellTiter-Glo reagent was added into the assay plates using Bioraptr FRD. After 30 min incubation at room temperature, the luminescence intensity in the assay plates was measured using a ViewLux (PerkinElmer, Shelton, CT) plate reader.
Potency is read from the fitted curve at half-maximal effect.

SMILES | Potency [1] | Potency [2]
CCC[CH2][Sn]([Cl])([CH2]CCC)[CH2]CCC | active: 3.86 µM [sample A] and inactive [sample B] | 
[Cd+2].[Cl-].[Cl-] |  | inactive [sample A] and active: 32 µM [sample B]
Clc1ccc(COC(Cn2ccnc2)c2ccc(Cl)cc2Cl)cc1 (stereo not drawn) | inactive [sample A] and active: 68.3 µM [sample B] | 
Nc1nc(N)nc(NC2CC2)n1 | inactive [sample A] and active: 1.19 µM [sample B] | 
Clc1ccc(C(c2ccccc2Cl)C(Cl)(Cl)Cl)cc1 (stereo not drawn) | inactive [sample A] and active: 45.1 µM [sample B] | 
C=C(C)[C@H]1Cc2c(ccc3c2O[C@@H]2COc4cc(OC)c(OC)cc4[C@@H]2C3=O)O1 |  | active: 492 nM [sample A] and inactive [sample B]
NC(=S)Nc1ccccc1 |  | active: 22 µM [sample A] and inactive [sample B]
O=S1OCC2C(CO1)C1(Cl)C(Cl)=C(Cl)C2(Cl)C1(Cl)Cl (stereo not drawn) | inactive [sample A] and active: 61.1 µM [sample B] | 
CCOP(=O)(O)OCC (tested in a mixture with another compound) | inactive [sample A] and active: 42.9 µM [sample B] | inactive [sample A] and active: 27.1 µM [sample B]
CC(C)c1ccc(OP(=O)(Oc2ccc(C(C)C)cc2)Oc2ccc(C(C)C)cc2)cc1 |  | active: 48.9 µM [sample A] and inactive [sample B] and active: 68.5 µM [sample C]
CCCCCCCCCCCC[N+](C)(C)CCOc1ccccc1 |  | active: 54.5 µM [sample A] and inactive [sample B]
C[C@]12CCC(=O)C[C@@H]1CC[C@@H]1[C@@H]2CC[C@]2(C)[C@@H](O)CC[C@@H]12 |  | active: 53.8 µM [sample A] and inactive [sample B]
